Measurements as given in PubChem BioAssay AID504339 (National Center for Advancing Translational Sciences (NCATS), 2011).
Hit rate of the full screen: of about 390,000 compounds, about 17,000 (4.4%) were called active. The inconclusive results got no clear call from the source; some entries with a clear call stand among them for comparison. Calls come from the whole dose curve; as a rule, active = well fitted inhibition curve with a large enough effect; inconclusive = small, poorly fitted or top-dose-only effect; inactive = no such curve, though single readings can be large or run the other way. Where the call is inconclusive, the potency comes from a doubtful curve fit.

Molecular target: Lysine-specific demethylase 4A (Homo sapiens) (UniProt O75164)
Assay: qHTS Assay for Inhibitors of JMJD2A-Tudor Domain; note: nearly all actives have a fitted effect of over 50% in size
Details: AlphaScreen JMJD2A-Tudor / H3K4me3 peptide binding; series mostly up to 114 µM
Potency is the fitted concentration of half-maximal effect; tags give direction and shape of the fitted curve.

Chain of UniProt O75164 (O75164 whole entry, looked up, the tested form may be a part): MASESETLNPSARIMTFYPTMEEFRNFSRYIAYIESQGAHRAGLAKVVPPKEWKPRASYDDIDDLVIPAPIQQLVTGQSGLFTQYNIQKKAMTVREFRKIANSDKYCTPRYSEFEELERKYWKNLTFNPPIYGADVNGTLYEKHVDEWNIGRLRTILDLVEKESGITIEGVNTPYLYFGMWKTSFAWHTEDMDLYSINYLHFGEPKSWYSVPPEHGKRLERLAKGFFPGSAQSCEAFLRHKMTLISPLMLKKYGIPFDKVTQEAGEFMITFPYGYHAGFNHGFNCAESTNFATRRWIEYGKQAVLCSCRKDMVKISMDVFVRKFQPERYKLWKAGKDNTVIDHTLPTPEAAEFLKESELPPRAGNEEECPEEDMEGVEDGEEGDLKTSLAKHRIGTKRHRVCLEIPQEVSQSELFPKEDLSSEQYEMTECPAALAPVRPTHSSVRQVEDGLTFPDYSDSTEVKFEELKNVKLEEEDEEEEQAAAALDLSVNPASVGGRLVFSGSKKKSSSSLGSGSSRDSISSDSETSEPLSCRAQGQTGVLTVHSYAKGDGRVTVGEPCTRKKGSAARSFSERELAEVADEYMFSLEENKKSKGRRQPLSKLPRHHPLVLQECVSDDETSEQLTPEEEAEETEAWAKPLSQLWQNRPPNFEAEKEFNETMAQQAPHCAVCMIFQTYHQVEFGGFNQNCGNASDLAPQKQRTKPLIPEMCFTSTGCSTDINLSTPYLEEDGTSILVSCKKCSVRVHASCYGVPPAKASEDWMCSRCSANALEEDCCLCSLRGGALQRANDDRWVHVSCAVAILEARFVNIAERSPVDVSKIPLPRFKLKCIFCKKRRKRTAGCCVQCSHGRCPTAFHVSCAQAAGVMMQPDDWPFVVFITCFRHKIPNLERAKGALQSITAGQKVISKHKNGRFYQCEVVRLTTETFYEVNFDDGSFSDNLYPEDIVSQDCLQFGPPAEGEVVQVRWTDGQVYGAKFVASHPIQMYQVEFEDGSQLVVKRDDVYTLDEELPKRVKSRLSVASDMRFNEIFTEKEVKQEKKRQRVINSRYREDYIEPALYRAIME

Potency, inconclusive:
CC1=NN(c2nc(-c3ccc(C)cc3)cs2)C(=O)C1N=Nc1cccc(C)c1 (centres undefined) 5.01 µM [inhibitor, full curve], Cc1[nH]nc(-c2ccc(O)cc2O)c1Oc1ccccc1 39.8 µM [inhibitor, partial curve], O=C(NCc1nc2ccccc2[nH]1)C1=C[C@H](c2csc3ccccc23)C[C@H](OCc2ccc(CO)cc2)O1 89.1 µM [inhibitor, partial curve], CC(/C=C1\SC(=S)N(CCCC(=O)Nc2ccc(C(=O)O)cc2)C1=O)=C\c1ccccc1 44.7 µM [inhibitor, partial curve], Oc1cccc(C(=S)N2CCC(Cc3ccccc3)CC2)c1 39.8 µM [inhibitor, partial curve], O=C(c1ccc([N+](=O)[O-])o1)N1CCN(c2nc3c(Cl)cccc3s2)CC1 14.1 µM [inhibitor, full curve, poor fit], CC(=O)Oc1ccc(N(C(C)=O)S(=O)(=O)c2ccc(C)cc2)c2ccccc12 14.1 µM [inhibitor, full curve], CCOC(=O)c1cccc(NC(=O)Nc2cc(OC)ccc2OC)c1 11.2 µM [inhibitor, full curve, poor fit], O=C(NCCCN1CCN(c2cccc(Cl)c2)CC1)c1nnc(Cc2ccc(F)cc2Cl)o1 7.94 µM [inhibitor, full curve, poor fit], O=C(C1=C(O)C(=O)N(Cc2ccccc2)C1c1ccncc1)c1ccco1 (centres undefined) 89.1 µM [inhibitor, single point], CSc1ccccc1NC(=O)COC(=O)/C=C/c1ccco1 25.1 µM [inhibitor, full curve, poor fit], Cc1cc(NC(=O)CN2C(=O)CC(c3ccco3)Sc3ccccc32)no1 (centres undefined) 50.1 µM [inhibitor, partial curve], COc1ccc(NC(=S)NC(NC(=O)c2cccc3ccccc23)C(Cl)(Cl)Cl)c([N+](=O)[O-])c1 (centres undefined) 31.6 µM [inhibitor, partial curve], COc1ccc(C(=S)N2CCN(c3cccc(Cl)c3)CC2)c(OC)c1 31.6 µM [inhibitor, full curve, poor fit], O=C(c1ccc([N+](=O)[O-])cc1)N(Cc1ccc(Cl)cc1Cl)N1C(=O)CCCC1=O 44.7 µM [inhibitor, partial curve], CCn1cc(C(=O)N2CCN(c3ccccc3)CC2)c(=O)c2cc(S(=O)(=O)N3CCC(C)CC3)ccc21 28.2 µM [inhibitor, partial curve], COc1cc2cc(C(c3nnnn3C(C)(C)C)N3CCc4ccccc43)c(=O)[nH]c2cc1OC (centres undefined) 50.1 µM [inhibitor, partial curve], CCCCOc1ccc(C2/C(=C(/O)c3ccc4c(c3)CC(C)O4)C(=O)C(=O)N2CCCN2CCOCC2)cc1OC (centres undefined) 17.8 µM [inhibitor, partial curve], O=C(COc1ccc2ccccc2c1)Nc1ccccc1C(=O)O 79.4 µM [inhibitor, partial curve], CN1CCN(c2ccccc2NC(=O)c2ccc(-c3ccc(Cl)cc3Cl)o2)CC1 56.2 µM [inhibitor, partial curve], CCCc1ccc(NC(C)C(=O)Nc2ccc(S(=O)(=O)N3CCOCC3)cc2)cc1 (centres undefined) 56.2 µM [inhibitor, partial curve], COc1ccc(-c2nc(-c3ccccc3)nc(N3CCN(C)CC3)c2C#N)cc1 17.8 µM [inhibitor, partial curve], O=C(NC(=S)Nc1ccc(N2CCCCC2)c(Cl)c1)c1ccc2c(c1)OCCO2 44.7 µM [inhibitor, partial curve], O=C(N/C=C/c1ccco1)Nc1cccc(Cl)c1 56.2 µM [inhibitor, partial curve], CCOC(=O)N1CCc2c(sc(NCc3sccc3C)c2C(=O)Nc2ccccc2OCC)C1 20 µM [inhibitor, full curve, poor fit], O=C(NC(=S)Nc1nc2c(ccc3ccccc32)s1)c1cccs1 5.01 µM [inhibitor, partial curve], CSc1ccc(CCNC(=O)c2ccc3c(c2)nc2n3CCOC2)cc1 56.2 µM [inhibitor, partial curve], O=C(NCCc1cn[nH]c1)C1CCC(=O)N(CCc2cccc(F)c2)C1 (centres undefined) 10 µM [inhibitor, partial curve, poor fit], O=C(Nc1cc(Cl)ccc1Oc1ccccc1)c1cnccn1 39.8 µM [inhibitor, single point], CN1c2ccccc2C(O)=C(C(=S)Nc2ccccc2)S1(=O)=O 100 µM [inhibitor, single point], O=C(O)c1ccc(N/N=C/C2=C(N3CCOCC3)C(=C\c3ccccc3)/CC2)cc1 56.2 µM [inhibitor, partial curve], COc1ccc(-n2c(Cc3cccn3C)nnc2SCC(=O)Nc2cc(Cl)ccc2OC)cc1 25.1 µM [inhibitor, full curve], CCCCC(=O)Nc1cccc(-c2cn3ccccc3n2)c1 3.98 µM [inhibitor, partial curve, poor fit], CN1C(C)(C)CCCC1(C)C 89.1 µM [inhibitor, single point], Cc1ccc(/C=N/NC(=S)NC2CCCCC2)o1 44.7 µM [inhibitor, partial curve], CCOC(=O)C1=C(CS(=O)(=O)c2ccc(C)c(C)c2)NC(=O)NC1c1ccccc1OCC (centres undefined) 10 µM [inhibitor, full curve, poor fit], CCOC(=O)C(NC(C)=O)(Nc1ccc(S(=O)(=O)Nc2ncccn2)cc1)C(F)(F)F (centres undefined) 31.6 µM [inhibitor, full curve], CCN1C(=O)[C@H]2[C@@H](c3ccc(-c4cccc(Cl)c4)c(OC)c3)N[C@@](Cc3ccccc3)(C(=O)OC)[C@H]2C1=O 63.1 µM [inhibitor, partial curve], Cc1cccc(CN2C(=O)/C(=C\c3ccc(C(=O)NCCN4CCOCC4)cc3)Sc3ccccc32)c1 100 µM [inhibitor, single point], COc1cccc(C2Nc3ccccc3-c3nnc(SCc4ccccc4)nc3O2)c1OC (centres undefined) 50.1 µM [inhibitor, partial curve]

Potency, inactive:
N#C/C(=C\c1ccccc1)C(=O)N1CCC(C(N)=O)CC1, COc1ccccc1NC(=O)c1ccc(NC(=O)c2ccco2)cc1, Cc1[nH]c(=O)c(C#N)c(C)c1[N+](=O)[O-], COc1ccccc1C1CCN(Cc2ccccc2Cl)CC1, O=C(O)Cn1nc(N2CCN(c3ccccc3)CC2)ccc1=O, C[C@@H](N)C(=O)NC[C@H]1O[C@@H](n2cnc3c(N)ncnc32)[C@H](O)[C@@H]1O, O=S(=O)(Nc1nc2ccc(S(=O)(=O)N3CCCC3)cc2s1)c1ccc(F)cc1, CC(C)(C)c1ccc(C(=O)NC(=S)Nn2cnnc2)cc1, COc1ccc(/C=N\Nc2ncc(F)c(N3CCOCC3)n2)cc1OC, C=C1C=CS(=O)(=O)N(C(CC(C)C)C(=O)OC)C1 (centres undefined), Cc1sc(NC(=O)COc2ccc(C(C)(C)C)cc2)c(C(=O)OC(C)C)c1C, N/C(=N\OC(=O)Nc1ccccc1)c1ncc(C(F)(F)F)cc1Cl, Cc1c(Cl)cccc1NC(=O)NCCOCCn1c(=O)oc2ccccc21, CCN(CC)S(=O)(=O)c1ccc2oc(SCC(=O)NC3CC3)nc2c1, N#CCc1nn(-c2ccccc2)c2ncnc(N)c12, COc1ccc(N(CC(=O)N2CCN(c3cccc(OC)c3)CC2)S(=O)(=O)c2c(C)noc2C)cc1

Potency, active:
Fc1ccc(Cn2nnnc2C(c2ccc(Cl)cc2)N2CCSCC2)cc1 (centres undefined) 56.2 µM, COc1ccc(CNC(=O)c2c([S-])n(-c3ccc(C)cc3)c3cccc[n+]23)cc1 3.16 µM, Cc1ccccc1NC1=C/C(=N\S(=O)(=O)c2cccs2)c2ccccc2C1=O 6.31 µM, O=C(NCCNC(=O)c1ccccc1Cl)c1ccco1 79.4 µM, CCNc1ccc(Br)cc(C(=O)/C=C/c2c(Cl)cccc2Cl)c1=O 89.1 µM, O=c1c2ccccc2cnn1Cc1n[nH]c(=S)n1-c1ccccc1Cl 31.6 µM, CN(CC(=O)NCc1ccc(Cl)cc1)S(=O)(=O)c1cccs1 89.1 µM, Cc1ccc(C2C(/C=C3/SC(=S)NC3=O)=C(c3cccs3)Oc3ccccc32)cc1 (centres undefined) 35.5 µM, Oc1ccc2ccccc2c1CNc1ccc2ccccc2c1 31.6 µM, Cc1ccc2c(c1C)-c1c(ccc(C)c1C)C(=O)C2=O 50.1 µM, O=C1c2ccccc2C(=O)N1/N=C/c1ccc(O)c(O)c1 8.91 µM, Clc1ccc2[nH]c3c(c2c1)CCc1cn[nH]c1-3 79.4 µM, Cc1ccc2c(c1)N(C(=O)c1ccco1)C(C)(C)c1ssc(=S)c1-2 14.1 µM
